Measured values from PubChem BioAssay (NCATS).
The shares of active, inactive and inconclusive entries below differ from those in the screen. For part of these data: Potencies of inconclusive entries are doubtful fits and often do not repeat. Activity calls are given as the source filed them. Unless noted, the call rests on the fitted dose curve; in most records, active means well fitted curve in the direction sought with a large enough effect; inconclusive means small, poorly fitted or top-dose-only effect, or another doubt; inactive means no such curve, though single readings can be large; an effect the other way counts as inactive or inconclusive.

Tests used:
[1] = Cell Viability - BJ (AID 421; calls by dose curve;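 further: potency means the concentration at half of the fitted maximal effect; cells exposed to compound for 40 hours at 37 °C before readout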); settings: BJ fibroblast viability, qHTS
Outline: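 Cytotoxicity in human BJ foreskin fibroblasts is scored as loss of cellular ATP after a 40-hour exposure, measured by luciferase luminescence. Controls are DMSO and 100 uM tamoxifen.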

[2] = Cell Viability - LYMP2-001 (AID 921); settings: LYMP2-001 lymphoblastoid cell viability; series mostly up to 92.2 µM;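 further: potency means the concentration at half of the fitted maximal effect; cells exposed to compound for 24 h at 37 °C; nearly all actives have a fitted effect of over 70% in size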
Outline: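 qHTS, 1536-well; lymphoblastoid cells, 24 hr compound, 37 C; ATP by CellTiter-Glo, 30 min RT; luminescence; Hill-fit AC50.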

[3] = Cell Viability - LYMP2-017 (AID 972); settings: LYMP2-017 lymphoblastoid cell viability; series mostly up to 92.2 µM;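 further: potency means the concentration at half of the fitted maximal effect; cells exposed to compound for 24 hours at 37 °C; nearly all actives have a fitted effect of over 55% in size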
Outline: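 In this qHTS format, lymphoblastoid cells in complete medium receive test compound for a day at 37 C before ATP content is quantified by luciferase luminescence. Reported AC50 figures come from standard Hill-equation curve fitting.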

[4] = Cell Viability - LYMP2-019 (AID 973); settings: LYMP2-019 lymphoblastoid cell line viability; series mostly up to 92.2 µM;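 further: potency means the concentration at half of the fitted maximal effect; cells exposed to compound for 24 h at 37 °C; nearly all actives have a fitted effect of over 55% in size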
Outline: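 AC50 values come from Hill-equation modelling of qHTS concentration-response curves, where viability is measured as luciferase-based ATP luminescence in the lymphoblastoid line after 24 hr compound exposure in complete culture medium.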

[5] = Cell Viability - LYMP2-021 (AID 974); settings: LYMP2-021 lymphoblastoid cells viability; series mostly up to 92.2 µM;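 further: potency means the concentration at half of the fitted maximal effect; compound exposure lasts 24 hours at 37 °C; nearly all actives have a fitted effect of over 55% in size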
Outline: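 In qHTS format, compounds are tested against 2500 lymphoblastoid cells per well for 24 h; viable cell number is inferred from ATP-driven luciferase light, and Hill-equation fitting yields AC50 values.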

[6] = Cell Viability - LYMP2-010 (AID 981); settings: LYMP2-010 lymphoblastoid cell viability, qHTS; series mostly up to 92.2 µM;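 further: potency means the concentration at half of the fitted maximal effect; cells exposed to compound for 24 hours at 37 °C; nearly all actives have a fitted effect of over 55% in size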
Outline: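 This 24 hr viability screen uses LYMP2-010 lymphoblastoid cells, quantifies ATP via luciferase luminescence, and derives AC50 from Hill fits of qHTS concentration-response data.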

[7] = Cell Viability - LYMP2-024 (AID 988); settings: LYMP2-024 lymphoblastoid cell viability; activity change, negative = cytotoxicity: at 92.2 µM (top of the series);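 further: plate controls were DMSO only for no effect and 92 µM tetraoctylammonium bromide for full effect; nearly all actives have a fitted effect of over 60% in size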
Outline: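 Cells at 2500 per well received compound for 24 hr after a 5 hr settling period. Viability was scored by CellTiter-Glo luminescence, with AC50 from Hill fits.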

[8] = biological target: Bile acid receptor (Homo sapiens) (UniProt Q96RI1); test: qHTS assay for small molecule antagonists of farnesoid X receptor signaling (AID 588526; calls by dose curve; further: on the % scale 0 is the no-effect control and ±100 the full control effect); settings: HEK293T FXR-UAS-bla, beta-lactamase ratio, antagonist mode; activity change, negative = inhibition: at 76.7 µM (top of the series)
Chain of UniProt Q96RI1 (Q96RI1 whole entry, looked up): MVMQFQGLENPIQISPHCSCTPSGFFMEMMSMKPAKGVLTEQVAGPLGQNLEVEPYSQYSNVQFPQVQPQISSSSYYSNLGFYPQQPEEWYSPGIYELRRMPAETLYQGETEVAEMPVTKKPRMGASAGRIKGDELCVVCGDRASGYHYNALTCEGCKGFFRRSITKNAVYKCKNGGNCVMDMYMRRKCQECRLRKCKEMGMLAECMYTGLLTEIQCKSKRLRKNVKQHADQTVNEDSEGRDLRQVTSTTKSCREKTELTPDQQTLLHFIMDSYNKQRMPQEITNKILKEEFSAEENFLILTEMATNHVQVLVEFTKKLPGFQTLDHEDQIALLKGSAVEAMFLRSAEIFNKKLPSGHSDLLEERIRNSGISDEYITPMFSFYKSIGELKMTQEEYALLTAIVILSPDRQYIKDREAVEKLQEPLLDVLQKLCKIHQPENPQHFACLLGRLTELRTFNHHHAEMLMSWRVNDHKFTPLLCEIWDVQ
Outline: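 Beta-lactamase reporter antagonist mode: HEK293T FXR-UAS-bla cells, titrated compound, CDCA stimulation, 16 h 37 C, CCF4 dye 2 h RT. Data normalized to CDCA 50 uM and DMSO; Hill-fit IC50.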

[9] = biological target: Peroxisome proliferator-activated receptor delta (Homo sapiens) (UniProt Q03181); test: qHTS assay for small molecule antagonists of peroxisome proliferator-activated receptor delta signaling (AID 588535; active means well fitted inhibition curve with a large enough effect in the signal ratio, with a control signal flat, not every such curve was filed as active; inconclusive means small, poorly fitted or top-dose-only effect, or effect the other way, or a change in a side signal; inactive means no such curve, though single readings can be large or run the other way; the % refers to the signal ratio); settings: HEK293T PPARd-UAS-bla, beta-lactamase FRET ratio, 18 h; activity change, negative = inhibition: at 76.7 µM (top of the series)
Chain of UniProt Q03181 (Q03181 whole entry, looked up): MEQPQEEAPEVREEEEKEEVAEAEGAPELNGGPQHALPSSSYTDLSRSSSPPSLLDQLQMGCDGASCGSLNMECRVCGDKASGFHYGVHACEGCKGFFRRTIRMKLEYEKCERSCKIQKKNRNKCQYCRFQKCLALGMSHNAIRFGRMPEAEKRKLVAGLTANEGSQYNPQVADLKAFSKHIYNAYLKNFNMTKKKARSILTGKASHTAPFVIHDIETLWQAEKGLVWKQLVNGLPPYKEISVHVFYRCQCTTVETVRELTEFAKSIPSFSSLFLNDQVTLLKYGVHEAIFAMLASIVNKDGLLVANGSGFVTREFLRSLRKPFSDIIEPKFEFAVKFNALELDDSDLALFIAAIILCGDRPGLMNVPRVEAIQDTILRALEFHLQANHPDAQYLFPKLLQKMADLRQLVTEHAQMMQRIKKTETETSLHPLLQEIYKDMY
Outline: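 Antagonist-mode qHTS using GeneBLAzer PPAR-delta-UAS-bla HEK293T cells; compound exposure 18 hrs at 37 C over a titration. Ratiometric CCF4 fluorescence at 460/530 nm; concentration-response points fitted to the Hill equation.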

[10] = biological target: Peroxisome proliferator-activated receptor gamma (Homo sapiens) (UniProt P37231); test: qHTS assay for small molecule antagonists of peroxisome proliferator-activated receptor gamma signaling (AID 588537; active means well fitted inhibition curve with a large enough effect in the signal ratio, with a control signal flat, not every such curve was filed as active; inconclusive means small, poorly fitted or top-dose-only effect, or effect the other way, or a change in a side signal; the % refers to the signal ratio;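 further: reporter cells co-stimulated with 50 nM rosiglitazone agonist during compound treatment; % of control where 0% means no effect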); settings: HEK293 PPARg-UAS-bla, beta-lactamase ratio, antagonist mode; activity, negative = inhibition: at 76.8 µM (top of the series)
Outline: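 Cell-based beta-lactamase assay; GW9662 served as the antagonist control. Stimulation used rosiglitazone, final 50 nM, 16 h, 37 C.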

[11] = biological target: Thyroid hormone receptor beta (Homo sapiens) (UniProt P10828); test: qHTS assay for small molecule agonists of thyroid hormone receptor beta signaling (AID 588545; calls by dose curve); settings: TR-UAS-bla GripTite HEK 293, beta-lactamase ratio, agonist mode, 18 h; activation: at 76.7 µM, percent of T3 response, DMSO as zero
Chain of UniProt P10828 (P10828 whole entry, looked up): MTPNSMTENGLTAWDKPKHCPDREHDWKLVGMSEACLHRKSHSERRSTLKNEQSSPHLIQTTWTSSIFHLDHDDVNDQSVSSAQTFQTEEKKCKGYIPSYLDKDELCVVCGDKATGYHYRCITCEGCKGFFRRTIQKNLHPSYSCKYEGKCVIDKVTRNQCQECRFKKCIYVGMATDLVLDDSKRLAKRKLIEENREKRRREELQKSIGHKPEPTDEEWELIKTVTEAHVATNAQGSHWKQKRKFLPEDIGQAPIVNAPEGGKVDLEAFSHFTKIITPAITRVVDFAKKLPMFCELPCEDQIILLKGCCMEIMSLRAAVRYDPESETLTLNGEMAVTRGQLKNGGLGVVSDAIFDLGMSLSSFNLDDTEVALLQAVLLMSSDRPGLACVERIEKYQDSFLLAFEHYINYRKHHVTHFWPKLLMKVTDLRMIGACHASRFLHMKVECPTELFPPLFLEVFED
Outline: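 HEK 293 TR-UAS-bla; agonist mode; 18 hrs, 37 C; CCF4, ex 405/em 460 and 530 nm; norm. T3 10 nM = 100%, DMSO = 0%; Hill fit → EC50, efficacy.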

[12] = qHTS assay to identify small molecules that stimulate interleukin-8 (IL-8) secretion (AID 651758; active means well fitted activation curve with a large enough effect in the signal ratio; inconclusive means small, poorly fitted or top-dose-only effect, or effect the other way, or a change in a side signal; the % refers to the signal ratio; further: 0% is about no effect); settings: HTRF ratio (665/615); activation: at 92.2 µM (top of the series)
Outline: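 Secreted IL-8 measured homogeneously by TR-FRET (two labelled anti-IL-8 antibodies, 1-3 h at room temperature) after a 16 h, 37 C compound treatment of THP-1 cells at 2000 cells/well.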

[13] = Cell Viability - Jurkat (AID 426;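 active means dose-dependent loss of cell ATP signal giving a full or clear fitted curve, ranked by lower potency value; inconclusive means weak partial curve or response only at the top dose; inactive means no loss of viability signal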;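 further: potency means the concentration at half of the fitted maximal effect; cells exposed to compound for 40 hours at 37 °C before ATP read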); settings: qHTS
Outline: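 Cytotoxicity was scored as loss of cellular ATP, measured by luciferase-based luminescence, in Jurkat clone E6-1 cells after 40 h compound treatment; tamoxifen and doxorubicin served as positive controls.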

[14] = Cell Viability - HUV-EC-C (AID 542); settings: HUV-EC-C endothelial cell viability, qHTS; series mostly up to 92.2 µM;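 further: cells exposed to compound for 40 hours; on the % scale 0 is the no-effect control and ±100 the full control effect; nearly all actives have a fitted effect of over 35% in size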
Outline: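 Concentration-dependent ATP loss in HUV-EC-C cells is the measure. Exposure lasts 40 hr at 37 °C; luminescence follows CellTiter-Glo addition, and Hill fits give AC50.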

[15] = biological target: Retinoic acid receptor RXR-alpha (Homo sapiens) (UniProt P19793); test: qHTS assay for small molecule antagonists of retinoid X receptor alpha signaling (AID 588546; active means well fitted inhibition curve with a large enough effect in the signal ratio, with a control signal flat, not every such curve was filed as active; inconclusive means small, poorly fitted or top-dose-only effect, or effect the other way, or a change in a side signal; inactive means no such curve, though single readings can be large or run the other way; the % refers to the signal ratio;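 further: cells stimulated with 9-cis-retinoic acid as agonist; on the % scale 0 is the no-effect control and ±100 the full control effect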); settings: HEK293T RXRa-UAS-bla, beta-lactamase ratio, antagonist mode
Chain of UniProt P19793 (P19793 whole entry, looked up): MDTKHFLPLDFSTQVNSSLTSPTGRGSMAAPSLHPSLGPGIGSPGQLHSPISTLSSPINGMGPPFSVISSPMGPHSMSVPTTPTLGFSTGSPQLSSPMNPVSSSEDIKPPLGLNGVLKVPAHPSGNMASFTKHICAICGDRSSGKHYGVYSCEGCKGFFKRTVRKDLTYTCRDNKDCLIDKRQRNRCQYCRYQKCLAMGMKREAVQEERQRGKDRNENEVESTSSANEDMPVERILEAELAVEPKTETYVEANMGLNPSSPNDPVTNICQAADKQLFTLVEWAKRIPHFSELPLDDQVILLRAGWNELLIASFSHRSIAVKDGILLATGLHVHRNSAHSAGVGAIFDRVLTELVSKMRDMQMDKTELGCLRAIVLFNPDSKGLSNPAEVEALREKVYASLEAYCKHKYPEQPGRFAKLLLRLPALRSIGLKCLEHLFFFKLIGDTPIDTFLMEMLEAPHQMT
Outline: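 Beta-lactamase reporter inhibition, read as CCF4 fluorescence ratio (ex 405, em 460/530 nm) after 2 h at RT. HEK293T UAS-bla cells, 2500/well, were stimulated with 9-cis-RA at 500 or 100 nM final alongside test compound for 18 h at 37 C.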

[16] = biological target: Thyroid hormone receptor beta (Homo sapiens) (UniProt P10828); test: qHTS assay for small molecule antagonists of thyroid hormone receptor beta signaling (AID 588547; active means well fitted inhibition curve with a large enough effect in the signal ratio, with a control signal flat, not every such curve was filed as active; inconclusive means small, poorly fitted or top-dose-only effect, or effect the other way, or a change in a side signal; the % refers to the signal ratio;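 further: cells stimulated with 0.4 nM T3 agonist during compound exposure; on the % scale 0 is the no-effect control and ±100 the full control effect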); settings: TR-UAS-bla HEK293, beta-lactamase ratio, antagonist mode, 18 h
Outline: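 Inhibition of T3-driven (0.4nM final) beta-lactamase reporter activity was measured over 0.59 nM to 92 uM compound after 18 h at 37 C. The cells were GripTite HEK293 TR-UAS-bla in charcoal/dextran-stripped serum, with CCF4 ratio read-out and IC50 from Hill fits.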

[17] = biological target: Voltage-gated inwardly rectifying potassium channel KCNH2 (Homo sapiens) (UniProt Q12809); test: qHTS Assay for Small Molecule Inhibitors of the Human hERG Channel Activity (AID 588834); settings: U2OS BacMam hERG, FluxOR thallium flux fluorescence; series mostly up to 92.2 µM;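 further: U2OS cells transduced with hERG by BacMam; top concentration of the series differs between compounds; on the % scale 0 is the no-effect control and ±100 the full control effect; lower thallium flux fluorescence means stronger hERG block; nearly all actives have a fitted effect of over 50% in size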
Chain of UniProt Q12809 (Q12809 whole entry, looked up): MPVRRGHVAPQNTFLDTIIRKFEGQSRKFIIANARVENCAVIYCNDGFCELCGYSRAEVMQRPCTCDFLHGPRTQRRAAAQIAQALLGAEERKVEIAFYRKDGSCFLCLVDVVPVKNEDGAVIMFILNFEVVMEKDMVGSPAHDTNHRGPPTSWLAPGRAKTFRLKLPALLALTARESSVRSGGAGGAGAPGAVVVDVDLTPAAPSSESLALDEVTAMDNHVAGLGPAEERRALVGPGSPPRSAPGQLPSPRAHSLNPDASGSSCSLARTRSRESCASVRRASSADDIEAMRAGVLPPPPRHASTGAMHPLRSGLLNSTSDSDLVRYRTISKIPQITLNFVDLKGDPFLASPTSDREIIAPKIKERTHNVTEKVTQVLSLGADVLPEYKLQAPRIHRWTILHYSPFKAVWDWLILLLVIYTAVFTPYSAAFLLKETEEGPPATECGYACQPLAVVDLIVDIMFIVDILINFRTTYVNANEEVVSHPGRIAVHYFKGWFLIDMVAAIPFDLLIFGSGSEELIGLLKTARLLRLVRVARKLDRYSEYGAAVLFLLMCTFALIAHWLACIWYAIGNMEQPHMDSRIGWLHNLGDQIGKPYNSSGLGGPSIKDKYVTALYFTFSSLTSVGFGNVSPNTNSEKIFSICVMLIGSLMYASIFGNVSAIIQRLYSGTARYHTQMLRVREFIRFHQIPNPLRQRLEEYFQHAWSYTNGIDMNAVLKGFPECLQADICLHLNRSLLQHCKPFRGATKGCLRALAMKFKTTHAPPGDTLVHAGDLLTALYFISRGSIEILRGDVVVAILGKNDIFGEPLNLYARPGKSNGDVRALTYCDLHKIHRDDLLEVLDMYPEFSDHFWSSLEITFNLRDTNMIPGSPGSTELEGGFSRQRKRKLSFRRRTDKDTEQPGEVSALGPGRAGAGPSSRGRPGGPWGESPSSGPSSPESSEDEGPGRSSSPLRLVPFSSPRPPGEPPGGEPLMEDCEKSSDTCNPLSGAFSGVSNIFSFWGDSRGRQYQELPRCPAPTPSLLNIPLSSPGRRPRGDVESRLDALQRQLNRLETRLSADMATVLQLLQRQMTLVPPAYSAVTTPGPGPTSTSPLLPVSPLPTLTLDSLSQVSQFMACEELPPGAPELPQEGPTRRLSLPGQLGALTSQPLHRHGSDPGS
Outline: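 Cells were infected with hERG-BacMam virus for 4 hrs at room temperature, grown overnight, then seeded at 2000/well. After dye loading and roughly 10 min compound treatment, thallium influx was triggered and fluorescence recorded.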

[18] = qHTS assay for small molecule agonists of the antioxidant response element (ARE) signaling pathway (AID 651741; active means well fitted activation curve with a large enough effect in the signal ratio; inconclusive means small, poorly fitted or top-dose-only effect, or effect the other way, or a change in a side signal; the % refers to the signal ratio; further: potency means the concentration at half of the fitted maximal effect; on activation: % of control where 0% means no effect); settings: HepG2 ARE-bla reporter, beta-lactamase FRET ratio, 16 h; activation: at 96 µM (top of the series) unless noted
Outline: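 Agonist activity is measured as ARE-driven beta-lactamase expression in a stable HepG2 reporter line, using 16 h compound treatment at 37 C and a FRET substrate fluorescence readout after 2 h.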

[19] = qHTS assay for small molecule agonists of the antioxidant response element (ARE) signaling pathway measured by Nrf2-dependant transcriptional activity (AID 720636; active means well fitted curve in the direction sought with a large enough effect in the repeat runs; inconclusive means weak or mixed curves; inactive means no such curve, though single readings can be large; an effect the other way counts as inactive or inconclusive;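 further: HepG2 cells with an ARE-driven luciferase reporter; % of control where 0% means no effect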); settings: ARE-luc HepG2, Nrf2 luciferase reporter, 16 h; series mostly up to 92.4 µM
Outline: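 In HepG2 cells engineered with an Nrf2-responsive luciferase gene, ARE induction was quantified as luminescence after 16 hr compound treatment at 37 C.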

[20] = biological target: Mitogen-activated protein kinase 10 (Mus musculus) (UniProt Q61831); test: JNK3 AlphaScreen Assay (AID 530; active means well fitted curve in either direction with a large enough effect, not every such curve was filed as active; inconclusive means small, poorly fitted or top-dose-only effect, or another doubt;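 further: kinase came from lysate of stimulated human HepG2 cells; signal reports phosphorylation of biotinylated GST-cJun 1-79 at Ser73 with 10 µM ATP; potency means the concentration at half of the fitted maximal effect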); settings: JNK3 lysate, c-Jun phosphorylation; activity change, negative = inhibition: at 57.1 µM (top of the series)
Outline: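 Kinase buffer: 20 mM Tris-HCl pH 7.6, 10 mM MgCl2, 1 mM DTT, 0.1 mM Na3VO4, 0.01% Tween-20; ATP 10 uM. Substrate biotin-GST-cJun(1-79), enzyme from activated HepG2 lysates. Detection by Ser73 phospho-antibody AlphaScreen.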

[21] = MultiTox-Fluor Cytotoxicity Assay - LYMP1-002 - Dead Cells (AID 960); settings: LYMP1-002 lymphoblastoid cells, dead-cell protease fluorescence; cytotoxicity (dead cells): at 46.1 µM (top of the series);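 further: 0% = DMSO and 100% = tetraoctylammonium bromide; nearly all actives have a fitted effect of over 60% in size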
Outline: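 Concentration-dependent increases in membrane-leaked protease activity are quantified in LYMP1-002 cells after 16 hr treatment; values are normalized against DMSO and tetraoctylammonium bromide (15 uM) controls and AC50 derived by Hill modeling.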

[22] = Cell Viability - LYMP1-003 - Assay at 40 hr (AID 964); settings: LYMP1-003 lymphoblastoid viability; series mostly up to 92.2 µM; further: on the % scale 0 is the no-effect control and ±100 the full control effect; nearly all actives have a fitted effect of over 60% in size
Outline: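 Acute toxicity is scored as a concentration-dependent loss of intracellular ATP in LYMP1-003 cells (2500/well, complete medium) after 40 hr at 37 C, measured by CellTiter-Glo luminescence; AC50 values derive from standard Hill modelling.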

[23] = biological target: Glucocorticoid receptor (Homo sapiens) (UniProt P04150); test: qHTS assay for small molecule antagonists of glucocorticoid receptor signaling (AID 588533; active means well fitted inhibition curve with a large enough effect in the signal ratio, with a control signal flat, not every such curve was filed as active; inconclusive means small, poorly fitted or top-dose-only effect, or effect the other way, or a change in a side signal; the % refers to the signal ratio;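 further: cells stimulated with 2 nM dexamethasone as agonist; on the % scale 0 is the no-effect control and ±100 the full control effect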); settings: HeLa MMTV-bla, GRE beta-lactamase ratio, antagonist mode, 18 h; activity change, negative = inhibition: at 76.8 µM (top of the series)
Chain of UniProt P04150 (P04150 whole entry, looked up): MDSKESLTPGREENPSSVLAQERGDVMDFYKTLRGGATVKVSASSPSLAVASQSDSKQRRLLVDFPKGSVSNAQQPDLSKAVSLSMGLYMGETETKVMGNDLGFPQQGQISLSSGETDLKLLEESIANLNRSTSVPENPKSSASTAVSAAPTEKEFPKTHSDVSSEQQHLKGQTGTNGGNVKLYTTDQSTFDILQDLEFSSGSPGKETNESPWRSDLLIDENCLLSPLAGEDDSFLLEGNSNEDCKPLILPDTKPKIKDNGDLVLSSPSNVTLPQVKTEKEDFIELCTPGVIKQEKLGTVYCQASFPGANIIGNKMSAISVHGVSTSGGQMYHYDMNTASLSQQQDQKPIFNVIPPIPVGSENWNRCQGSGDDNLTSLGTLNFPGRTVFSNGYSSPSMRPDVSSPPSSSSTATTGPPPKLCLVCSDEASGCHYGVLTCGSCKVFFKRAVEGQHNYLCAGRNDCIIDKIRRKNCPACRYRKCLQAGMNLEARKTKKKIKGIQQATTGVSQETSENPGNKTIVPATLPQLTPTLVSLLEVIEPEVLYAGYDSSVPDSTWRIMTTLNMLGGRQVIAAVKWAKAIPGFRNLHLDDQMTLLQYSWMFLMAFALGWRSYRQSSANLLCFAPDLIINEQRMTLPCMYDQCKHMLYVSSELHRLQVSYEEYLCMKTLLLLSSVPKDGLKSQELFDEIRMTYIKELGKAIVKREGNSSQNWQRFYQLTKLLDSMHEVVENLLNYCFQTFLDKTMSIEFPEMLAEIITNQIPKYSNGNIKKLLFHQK

[24] = biological target: Retinoic acid receptor RXR-alpha (Homo sapiens) (UniProt P19793); test: qHTS assay for small molecule agonists of retinoid X receptor alpha signaling (AID 588544; calls by dose curve;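 further: 0% = DMSO basal wells and 100% = reference agonist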); settings: HEK293T RXRa-UAS-bla, beta-lactamase reporter, 18 h; activation: at 76.7 µM (top of the series) unless noted
Tags describe the fitted curve by direction and shape.

O=C(O)c1ccc(CO)o1
inactive: Potency [1] > 92 µM | Potency [8] | activation [11] 3.14%
inconclusive: Potency [2] 25.1 µM [cytotoxic, full curve, poor fit] | Potency [3] 50.1 µM [cytotoxic, partial curve, poor fit] | Potency [4] 50.1 µM [cytotoxic, single point] | Potency [5] 79.4 µM [cytotoxic, single point] | Potency [6] 79.4 µM [cytotoxic, single point] | activity change, negative = cytotoxicity [7] -39.3% [cytotoxic] | activity change, negative = inhibition [9] 7.61% | activity, negative = inhibition [10] -0.792% | activation [12] -23.9%

Cc1ccco1
inconclusive: Potency [18] 75 µM [activator, single point] | activation [12] 12.3%
inactive: Potency [13] > 92 µM | Potency [14] | Potency [10] | max response [15] 5.14% | activity change % (negative = inhibition) [16] 12.3% | Potency [17] | Potency [19]

c1ccc(CSCc2ccccc2)cc1
inconclusive: Potency [20] 31.6 µM [activator, partial curve] | activation [12] 13.6%
inactive: Potency [13] > 92 µM | Potency [21] | Potency [22] | Potency [23] | Potency [24] | activity change % (negative = inhibition) [16] -5.66% | Potency [18]
